In the RNAGym collection of RNA variant scans (doi:10.7554/elife.90254):
Read counts are not given, so values of variants with three or more changes are uncertain.

B1: LINE1-mini (parent)
chain: GGCAGAGCUCAACACAGCGUGGCAAAGUGGCUGUGGCUAGACUGCC

Variants of: B1
Test: self-cleavage, relative activity (ratio to wild type); higher = more cleavage; in vitro, sequencing; the parent is a self-cleaving ribozyme

Variant	self-cleavage
G5A A11C C23A	0.01
G5A A11C C42U	0.04
G5A A11C G17C	0.01
G5A A11C G22A C23G A25G G30A	0.02
G5A A11C U38A A39C	0.01
G5A A11G A12C C15A G27U G36A	0.01
G5A A11G A16C U34C A41C C46A	0.03
G5A A11G A24U	0.09
G5A A11G C37G	0.01
G5A A11G G29U C37A	0.03
G5A A11G G35U	0.04
G5A A11G U32A	0.03
G5A A11U A25U G30A C46A	0.03
G5A A11U C13U A16C G30C C37U A41U	0
G5A A11U C15U	0.02
G5A A11U G21C A24U	0.01
G5A A11U U32G G33A	0.01
G5A A12C A14U G17U	0.03
G5A A12C C18U G29U G35A	0.03
G5A A12C C23G C31A A41U C46A	0
G5A A12C C31A G36C G44A	0

Variant	self-cleavage
G5A A12C C31U	0.03
G5A A12C C37G U38G	0
G5A A12C C46G	0.03
G5A A12C G17A G33A	0.03
G5A A12C G22U	0.05
G5A A12C G40C	0
G5A A12C U20G A24G G27U C42U C46A	0.03
G5A A12G A16U G17U G21U	0.01
G5A A12G A24U	0.03
G5A A12G C13G A24U U28A	0.29
G5A A12G C15G C18A U32C	0.04
G5A A12G G21C A25C	0.01
G5A A12G G30C	0.06
G5A A12G U28C A39G	0.03
G5A A12G U28G	0.03
G5A A12U C13U G19U U38C	0.32
G5A A12U C15U G44U	0.01
G5A A12U U28G G30C	0.1
G5A A14C A39G	0.08
G5A A14C C15A A16U C31U A41G	0
G5A A14C C46A	0.21

Variant	self-cleavage
G5A A14C G21C A26C C45U	0.15
G5A A14C G36A A41G C42U	0.1
G5A A14G A24C U28A G40C C42U	0.05
G5A A14G C15G U28C A41G	0
G5A A14G C23A G30A A41C	0.05
G5A A14G C37A	0.31
G5A A14U C18A G21U U32A C46A	0.02
G5A A14U G21C C37A G40U	0.06
G5A A14U G22C C42U	0.3
G5A A14U G27C G36A G44C	0.03
G5A A14U G36U C42G	0.03
G5A A14U G40A	0.13
G5A A14U G44C	0
G5A A14U U20A G40C G44A	0.05
G5A A14U U43A G44A	0.05
G5A A16C A26U U38C A41C	0.02
G5A A16C G17C C31A	0.06
G5A A16C G29C C37A C46G	0
G5A A16C G29U G40A C42G	0.07
G5A A16C G33U U34A	0.05
G5A A16C U34C	0.07

Variant	self-cleavage
G5A A16G C23U G27A	0.08
G5A A16G U28A	0.03
G5A A16U A41U C45A	0.07
G5A A16U G17U C18G G29A C42U	0.02
G5A A16U G30U C37U C46A	0.04
G5A A16U G35U	0.09
G5A A16U U32C G33U G35C A39G	0.04
G5A A24C G30C U34G A39U	0
G5A A24C U28A	0.04
G5A A24G G36C	0.05
G5A A24U A25C G30A U43C	0.04
G5A A24U C37U	0.04
G5A A24U G29C	0.01
G5A A25C A39G G40U C45U	0.03
G5A A25C C45A	0.01
G5A A25G C37U	0.02
G5A A25G G33A	0.16
G5A A25G G35A	0.08
G5A A25G G40A C42A	0.04
G5A A25U C31U	0
G5A A25U C42G G44U	0.02
